How the values were obtained:
[1] = molecular target: Recombinant human serum albumin (human); assay: SPR (BIACORE 3000), recombinant HSA immobilized on CM5 chip
Protocol: To measure the binding affinities of the ABD-fused insulin analogue proteins for albumin, a surface plasmon resonance (SPR, BIACORE 3000, GE healthcare) analysis method was used. Recombinant human serum albumin was immobilized on a CM5 chip by an amine coupling method, and the ABD or ABD-fused insulin analogues diluted to five or more concentrations were bound thereto, and the affinities thereof for the human serum albumin were measured.

Insulin receptor [2] = assay: SPR (BIACORE 3000), insulin receptor immobilized on CM5 chip
Protocol: (§1) To measure the binding affinities of native insulin and ABD-fused insulin analogues for insulin receptor, a surface plasmon resonance (SPR, BIACORE 3000, GE healthcare) analysis method was used. Insulin receptor was immobilized on a CM5 chip by an amine coupling method, and each of native insulin and ABD-fused insulin analogues, diluted to five or more concentrations, was bound thereto, and the affinities thereof for the insulin receptor were measured.

Insulin receptor [3] = assay: SPR (BIACORE 3000), insulin receptor immobilized on CM5 chip; reference native insulin
Protocol: as §1

Row | Binder | Kd [1] [nM] | koff [1] [s⁻¹] | kon [1] [M⁻¹ s⁻¹] | kon (Insulin receptor [2]) [M⁻¹ s⁻¹] | Kd (Insulin receptor [2]) [nM] | koff (Insulin receptor [2]) [s⁻¹] | affinity relative to native insulin (Insulin receptor [3]) [%]
1 | ABD-fused insulin analogue 1 (ligand, B chain and A chain are joined by disulfide bonds; also called long-acting insulin analogue derivative 1) chain 1: [about 40 residues not given here] chain 2: GILEQCCTSICSLYQLENYCNGGGGSGGGGSLAEAKEAANAELDSYGVSDFYKKLIDKAKTVEGVEALKDAILAALP | 0.0521 | 2.37e-05 | 454000 | 85400 | – | – | –
2 | ABD-fused insulin analogue 2 (ligand, Built as the active two-chain form (fusion tag and C chain removed by clostripain and CpB); also called long-acting insulin analogue derivative 2) chain 1: [about 40 residues not given here] chain 2: GIVEQCCDSICSLYQLENYCNGGGGSGGGGSLAEAKEAANAELDSYGVSDFYKKLIDKAKTVEGVEALKDAILAALP | 0.0711 | 3.14e-05 | 442000 | 43800 | 72 | 0.00315 | –

Results, then the binder that gave them:

Row | Kd [1] [nM] | koff [1] [s⁻¹] | kon [1] [M⁻¹ s⁻¹] | kon (Insulin receptor [2]) [M⁻¹ s⁻¹] | Kd (Insulin receptor [2]) [nM] | koff (Insulin receptor [2]) [s⁻¹] | affinity relative to native insulin (Insulin receptor [3]) [%] | Binder
3 | 0.0717 | 3.32e-05 | 464000 | 28200 | 46.5 | 0.00131 | – | ABD-fused insulin analogue 4 (ligand, Built as the active two-chain form (fusion tag and C chain removed by clostripain and CpB); also called long-acting insulin analogue derivative 4) chain 1: [about 40 residues not given here] chain 2: GIVEQCCTSICSLEQLENYCNGGGGSGGGGSLAEAKEAANAELDSYGVSDFYKKLIDKAKTVEGVEALKDAILAALP
4 | 0.096 | 3.13e-05 | 326000 | 40700 | 57.5 | 0.00234 | – | ABD-fused insulin analogue 5 (ligand, Built as the active two-chain form (fusion tag and C chain removed by clostripain and CpB); also called long-acting insulin analogue derivative 5) chain 1: [about 40 residues not given here] chain 2: GIVEQCCTSICSLYQLENFCNGGGGSGGGGSLAEAKEAANAELDSYGVSDFYKKLIDKAKTVEGVEALKDAILAALP
5 | 0.174 | 4.36e-05 | 251000 | 25200 | 86.5 | 0.00218 | ~19.4 | ABD-fused insulin analogue 3 (ligand, Built as the active two-chain form (fusion tag and C chain removed by clostripain and CpB); also called long-acting insulin analogue derivative 3) chain 1: [about 40 residues not given here] chain 2: GIVEQCCTSKCSLYQLENYCNGGGGSGGGGSLAEAKEAANAELDSYGVSDFYKKLIDKAKTVEGVEALKDAILAALP

Source: patent publication US20210309710A1 (DAEWOONG PHARMACEUTICAL, published 2021)
